In PubChem BioAssay AID2451 (National Center for Advancing Translational Sciences (NCATS), 2010):
The campaign covered roughly 290,000 compounds. About 2,100 (0.72%) were called active. The inconclusive results got no clear call from the source; some entries with a clear call stand among them for comparison. Calls come from the whole dose curve; as a rule, active = well fitted inhibition curve with a large enough effect; inconclusive = small, poorly fitted or top-dose-only effect, or effect the other way; inactive = flat fitted curve, though single readings scatter. Where the call is inconclusive, the potency comes from a doubtful curve fit.

target: Fructose-bisphosphate aldolase (Giardia intestinalis (strain ATCC 50803 / WB clone C6)) (UniProt A8B2U2); assay: qHTS Assay for Inhibitors of Fructose-1,6-bisphosphate Aldolase from Giardia Lamblia; settings: purified Giardia FBPA; series mostly up to 59.6 µM; note: nearly all actives have a fitted effect of over 55% in size
Chain of UniProt A8B2U2 (A8B2U2 whole entry, looked up): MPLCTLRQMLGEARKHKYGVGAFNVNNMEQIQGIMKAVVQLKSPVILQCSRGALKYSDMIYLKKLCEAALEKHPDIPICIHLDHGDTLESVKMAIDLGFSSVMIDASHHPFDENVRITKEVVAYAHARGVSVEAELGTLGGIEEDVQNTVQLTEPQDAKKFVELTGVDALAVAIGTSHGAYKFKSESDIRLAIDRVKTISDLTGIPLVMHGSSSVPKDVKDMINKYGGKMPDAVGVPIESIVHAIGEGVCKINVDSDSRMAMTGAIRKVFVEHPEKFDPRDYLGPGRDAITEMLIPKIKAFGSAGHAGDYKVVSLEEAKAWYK
Outline: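 40 nM FBPA preincubated 10 min at RT with compound (up to 57.5 uM final), then substrate plus GAPDH/TPI/NAD/arsenate coupling and diaphorase/resazurin added. Fluorescence read after 20 min at RT, 525/598 nm.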
Potency is the fitted concentration of half-maximal effect; tags give direction and shape of the fitted curve.

Structure (SMILES)	Potency
C[C@@H](O)C1NC(=O)[C@H](CCCCN)NC(=O)c2cc([N+](=O)[O-])cc(I)c2OCC[C@@H](C(N)=O)NC1=O (stereo partly drawn)	inactive
COc1ccc(S(=O)(=O)N2CCCC2C(=O)Nc2ccc(C)cc2)cc1 (stereo not drawn)	inactive
CCOC(=O)c1csc(NC(=O)CN2CCN(C)CC2)n1	inconclusive: 17.8 µM [inhibitor, partial curve]
Cc1ccc(Nc2nc(N)[nH]c(=O)c2N=O)cc1	inconclusive: 19.9 µM [inhibitor, partial curve]
COC(=O)C1CC(=O)N(c2ccc(C)cc2)C1 (stereo not drawn)	inactive
O=C(Nc1sc2c(c1C(=O)O)CCCC2)c1ccc(Cl)cc1	inconclusive: 22.4 µM [inhibitor, single point]
FC(F)(F)c1ccccc1NC(=S)N1CCCC1	inactive
COc1ccc(NC(=O)CNC(c2ccccc2)c2ccccc2)cc1	active: 20 µM
CN(C)Cc1ccc(F)cc1Sc1cc(Cl)ccc1Cl	inconclusive: 19.9 µM [activator, single point]
COc1ccc(-c2nnc(SCc3ccccc3F)o2)cc1OC	inactive
CCOc1cc(C2C3=C(CCCC3=O)NC3=C2C(=O)CCC3)cc(Cl)c1O	inconclusive: 2.81 µM [inhibitor, full curve]
CN1CCN(C(=S)NC(=O)c2ccco2)CC1	inconclusive: 12.6 µM [inhibitor, partial curve]
C[C@@H](CSc1ccccc1)CN1CC[C@H](NC(=O)OCc2ccccc2)CCC1=O	inactive
CC1CCN(S(=O)(=O)c2nnc(NC(=O)c3cccc(Cl)c3)s2)CC1	inconclusive: 25.1 µM [inhibitor, partial curve]
On1c2c(c3c4nonc4ccc31)CCCC2	active: 5.61 µM
O=C(NCCO)c1cc2cc(Cl)cc(Cl)c2oc1=O	inconclusive: 2.81 µM [inhibitor, full curve, poor fit]
NS(=O)(=O)c1ccc2nc(NC(=O)c3ccc(Br)o3)sc2c1	inactive
CC(=O)N1CCN(C2=Nc3cccc4cccc2c34)CC1	active: 3.97 µM
Cc1ccc(C(=O)NC(=S)NNS(=O)(=O)c2ccc(C)cc2)cc1	inconclusive: 4.46 µM [activator, partial curve]
CCCCCCNCC(=O)N1CCC(Cc2ccccc2)CC1	inconclusive: 25.1 µM [inhibitor, partial curve]
Cc1cc2cc(CNS(=O)(=O)N(C)C)ccc2[nH]1	inconclusive: 3.15 µM [inhibitor, partial curve]
CCN(Cc1ccccc1)S(=O)(=O)c1ccc(C(=O)Nc2nnc(-c3ccccc3OC)o2)cc1	inconclusive: 17.7 µM [activator, partial curve]
Cc1onc(-c2ccccc2Cl)c1C(=O)Nc1nnc(-c2cccc([N+](=O)[O-])c2)s1	inconclusive: 17.7 µM [activator, single point]
Cc1ccc(-c2cc(C(=O)Nc3cccc(S(=O)(=O)N(C)C)c3)c3ccccc3n2)o1	inactive

Structure (SMILES)	Potency
CNC(=S)N/N=C/c1ccc(-c2cccc(C(=O)O)c2)o1	inconclusive: 17.7 µM [inhibitor, partial curve]
C=CCc1ccc(OCCCNCc2ccccc2)c(OC)c1	inconclusive: 17.8 µM [inhibitor, partial curve]
O=C(NCc1ccccc1)C1=C[C@H](c2ccc3c(c2)OCO3)C[C@H](OCCCCO)O1	inconclusive: 19.9 µM [inhibitor, partial curve]
C=CCn1c(C(C)NC(=O)c2ccccc2C)n[nH]c1=S (stereo not drawn)	inconclusive: 5 µM [inhibitor, partial curve]
COc1ccc([N+](=O)[O-])cc1/C=N/NC(=O)CNC(=O)C(c1ccccc1)c1ccccc1	inconclusive: 15.8 µM [inhibitor, single point]
CCN=c1scc(C)n1/N=C/c1ccc(O)c(O)c1O	inconclusive: 7.06 µM [inhibitor, partial curve]
CCOC(=O)C1CCN(Cc2ccc(O)c3ncccc23)CC1	inconclusive: 6.29 µM [inhibitor, partial curve]
O=C1CCCC/C1=C\Nc1ccc(Cl)cn1	inconclusive: 22.3 µM [inhibitor, single point]
N#C/C(=C(O)\C=C\c1ccccc1)c1nc2ccccc2[nH]1	inactive
c1ccc(-n2cnc3ccccc32)nc1	inactive
CC(=O)NCc1ccc(C(=O)CCl)cc1	inactive
CCc1nc2ccccc2c(=O)n1-c1ccccc1OC	inconclusive: 39.8 µM [inhibitor, single point]
O=C(O)C1C2CCC(O2)C1C(=O)Nc1ccc(Cl)cc1 (stereo not drawn)	inactive
COc1ccc(Oc2ccc(C(F)(F)F)cc2NC(=O)c2ccc(OC)cc2)cc1	inactive
CCOc1ccc(C(=O)NC(=S)Nc2ncccc2C)cc1[N+](=O)[O-]	inconclusive: 1.58 µM [inhibitor, partial curve]
Oc1c(Br)cc(/C=N/n2c(-c3ccccc3)n[nH]c2=S)c(O)c1Br	inactive
O=C(NCCCN1CCCCCC1)C1CC(=O)N(CCc2ccccc2)C1 (stereo not drawn)	inconclusive: 19.9 µM [inhibitor, single point]
S=c1nc[nH]c2c1ncn2C1CCCO1 (stereo not drawn)	active: 2.51 µM
COc1ccc(C(=O)N2CCN(C3CCN(Cc4ccccc4)CC3)CC2)cc1OC	inconclusive: 19.9 µM [inhibitor, partial curve]
Cc1csc(NC(=O)c2cn3ccccc3n2)n1	inconclusive: 17.7 µM [inhibitor, single point]
Cc1cc(C)c2c(N)c(C(=O)Nc3nccs3)sc2n1	inactive
O=C(N[C@@H](Cc1c[nH]c2ccccc12)C(=O)O)c1ccc(Cl)cc1	inconclusive: 22.3 µM [activator, partial curve]
Cc1ccc(C2C(C(=O)c3cccs3)=C(O)C(=O)N2c2nnc(C)s2)cc1 (stereo not drawn)	inconclusive: 6.29 µM [inhibitor, full curve, poor fit]
CCOc1ccccc1-c1nc(-c2ccc(NC(=O)Cc3ccc(OC)cc3)cc2)no1	inactive
